The inconclusive results got no clear call from the source; some entries with a clear call stand among them for comparison. For some assays here: A potency beside an inconclusive call is a rough fit, not a confirmed value. Active and inactive are the calls of the source. Unless noted, calls follow the shape of the dose curve; as a rule, active = well fitted curve in the direction sought with a large enough effect in the repeat runs; inconclusive = weak or mixed curves; inactive = no such curve, though single readings can be large; an effect the other way counts as inactive or inconclusive. Bridge positions count the residues as written; N and C are the ends. Square brackets hold non-standard residues; d marks the D form. Peptide text beside a SMILES is read from it. hArg = N=C(N)NCCCC[C@H](N)C(=O)O; Mpa = O=C(O)CCS
Columns and labels:
[1] = biological target: Androgen receptor (Homo sapiens) (UniProt P10275); experiment: qHTS assay to identify small molecule antagonists of the androgen receptor (AR) signaling pathway (AID 743035; active = well fitted inhibition curve with a large enough effect in the signal ratio in the repeat runs, not every such curve was filed as active; inconclusive = weak or mixed curves, or effect the other way; inactive = no such curve, though single readings can be large or run the other way; the % refers to the signal ratio; also: potency is read from the fitted curve at half-maximal effect); settings: HEK293 AR-UAS-bla, R1881-stimulated, beta-lactamase FRET, 16 h; activity change, negative = inhibition: at 58.5 µM (top of the series) unless noted
How it was run: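 Using qHTS, AR-UAS-bla GripTite HEK293 cells received compound, then R1881, and were cultured 16 h at 37C/5% CO2 before a 2 h room-temperature LiveBLAzer B/G FRET substrate step and fluorescence measurement.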

[2] = biological target: Androgen receptor (Homo sapiens) (UniProt P10275); experiment: qHTS assay to identify small molecule agonists of the androgen receptor (AR) signaling pathway (AID 743036; active = well fitted activation curve with a large enough effect in the signal ratio in the repeat runs, with a control signal flat, not every such curve was filed as active; inconclusive = weak or mixed curves, or effect the other way; inactive = no such curve, though single readings can be large or run the other way; the % refers to the signal ratio; also: potency is read from the fitted curve at half-maximal effect); settings: HEK293 AR-UAS-bla GripTite, beta-lactamase FRET ratio, 16 h; activation: at 62.4 µM (top of the series) unless noted
How it was run: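 Beta-lactamase under UAS control, stably integrated in HEK293 GripTite cells, reports receptor activation. After 16 h compound treatment, cells received FRET substrate for 2 h at room temperature before fluorescence reading.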

[3] = biological target: Androgen receptor (Homo sapiens) (UniProt P10275); experiment: qHTS assay to identify small molecule antagonists of the androgen receptor (AR) signaling pathway using the MDA cell line (AID 743042; also: potency is read from the fitted curve at half-maximal effect; nearly all actives have a fitted effect of over 55% in size)
How it was run: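 MDA-kb2 breast carcinoma cells carrying MMTV-luciferase (AR/GR responsive) were co-treated with compounds and the agonist R1881 for 16 h at 37C. Inhibition read as ONE-Glo luminescence; CellTiter-Fluor fluorescence measured in parallel for cytotoxicity.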

[4] = qHTS assay to identify small molecule antagonists of the thyroid receptor (TR) signaling pathway - cell viability counter screen (AID 743064); settings: GH3.TRE-Luc viability, CellTiter-Fluor, 24 h; activity change, negative = cytotoxic: at 70.3 µM (top of the series) unless noted; also: potency is read from the fitted curve at half-maximal effect; nearly all actives have a fitted effect of over 50% in size
How it was run: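 Compounds were tested on GH3.TRE-Luc cells in the presence of T3 at 1 nM final. Following 23.5 h at 37 °C, cell viability was quantified by CellTiter-Fluor.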

[5] = qHTS assay to identify small molecule antagonists of the thyroid receptor (TR) signaling pathway (AID 743065); also: potency is read from the fitted curve at half-maximal effect; nearly all actives have a fitted effect of over 55% in size
How it was run: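 GH3.TRE-Luc rat pituitary cells (two TREs driving luciferase) were dosed with compound, then stimulated with 1 nM T3 (final) for 23.5 h at 37 C. ONE-Glo luminescence was the read-out, with CellTiter-Fluor fluorescence as the cytotoxicity counter-screen.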

[6] = system: thyroid hormone receptor (rat, GH3 cells); experiment: qHTS assay to identify small molecule agonists of the thyroid receptor (TR) signaling pathway (AID 743066; calls by dose curve; also: potency is read from the fitted curve at half-maximal effect; as to activation: % is scaled to controls: 0 for no effect and ±100 for the full control effect); settings: GH3.TRE-Luc cells, TR agonist luciferase, 24 h; activation: at 83.9 µM (top of the series) unless noted
[7] = biological target: Estrogen receptor (Homo sapiens) (UniProt P03372); experiment: qHTS assay to identify small molecule antagonists of the estrogen receptor alpha (ER-alpha) signaling pathway (AID 743069; active = well fitted curve in the direction sought with a large enough effect in the signal ratio in the repeat runs, not every such curve was filed as active; inconclusive = weak or mixed curves, or effect the other way; inactive = no such curve, though single readings can be large or run the other way; the % refers to the signal ratio; also: potency is read from the fitted curve at half-maximal effect; as to activity, negative = inhibition: % is scaled to controls: 0 for no effect and ±100 for the full control effect); settings: HEK293 ER-alpha-UAS-bla, beta-lactamase ratio, antagonist mode; activity, negative = inhibition: at 69.4 µM (top of the series) unless noted
How it was run: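 Reporter cells (ER-alpha-bla, HEK293 background) are conditioned overnight in stripped-serum medium (2% charcoal-stripped FBS). Compound and 17beta-estradiol exposure runs 18 hr at 37C, 5% CO2.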

[8] = qHTS assay to identify small molecule antagonists of the estrogen receptor alpha (ER-alpha) signaling pathway - cell viability counter screen (AID 743074; calls by dose curve;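 also: HEK293 cells carrying ER-alpha-UAS-bla reporter stimulated with 17beta-estradiol; nearly all actives have a fitted effect of over 45% in size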; also: potency is read from the fitted curve at half-maximal effect)
[9] = qHTS assay to identify small molecule antagonists of the androgen receptor (AR) signaling pathway - cell viability counter screen (AID 743033; also: nearly all actives have a fitted effect of over 45% in size; also: potency is read from the fitted curve at half-maximal effect; as to activity change, negative = cytotoxicity: % is scaled to controls: 0 for no effect and ±100 for the full control effect); settings: AR-bla HEK293 viability, CellTiter-Glo luminescence, 16 h; activity change, negative = cytotoxicity: at 58.5 µM (top of the series)
[10] = qHTS assay to identify aromatase inhibitors - cell viability counter screen (AID 743084); settings: MCF-7 aro ERE viability, CellTiter-Fluor, 24 h; activity change, negative = cytotoxicity: at 70.3 µM (top of the series);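 also: cells stimulated with testosterone during compound exposure; nearly all actives have a fitted effect of over 55% in size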; also: potency is read from the fitted curve at half-maximal effect
[11] = qHTS assay to identify small molecule antagonists of the estrogen receptor alpha (ER-alpha) signaling pathway using the BG1 cell line - cell viability counter screen (AID 743081);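 also: compound given together with 17beta-estradiol as the ER stimulus; nearly all actives have a fitted effect of over 45% in size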; also: potency is read from the fitted curve at half-maximal effect
[12] = biological target: Estrogen receptor (Homo sapiens) (UniProt P03372); experiment: qHTS assay to identify small molecule agonists of the estrogen receptor alpha (ER-alpha) signaling pathway using the BG1 cell line (AID 743079); settings: BG1Luc4E2 cells, ERE-luciferase agonist, 22 h; activation: at 70.3 µM (top of the series) unless noted; also: nearly all actives have a fitted effect of over 20% in size; also: potency is read from the fitted curve at half-maximal effect
[13] = biological target: Estrogen receptor (Homo sapiens) (UniProt P03372); experiment: qHTS assay to identify small molecule agonists of the estrogen receptor alpha (ER-alpha) signaling pathway (AID 743075; calls by dose curve;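 also: HEK293 GripTite cells with ER-alpha and UAS-driven beta-lactamase reporter; % is scaled to controls: 0 for no effect and ±100 for the full control effect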)
[14] = qHTS assay to identify small molecule antagonists of the estrogen receptor alpha (ER-alpha) signaling pathway using the BG1 cell line (AID 743080; calls by dose curve;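 also: BG1 cells stimulated with 17beta-estradiol alongside compound; % is scaled to controls: 0 for no effect and ±100 for the full control effect; nearly all actives have a fitted effect of over 25% in size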); settings: BG1Luc4E2 ERE-luciferase antagonist mode, luminescence; activity change, negative = inhibition: at 70.3 µM (top of the series) unless noted
How it was run: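 After 5 days in phenol-red-free 10% charcoal-stripped FBS medium, BG1-Luc-4E2 cells were seeded, left 24 h at 37 C, co-treated with compounds and 17beta-estradiol for 21.5 h, then assayed for viability and luciferase.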

[15] = biological target: Androgen receptor (Homo sapiens) (UniProt P10275); experiment: qHTS assay to identify small molecule agonists of the androgen receptor (AR) signaling pathway using the MDA cell line (AID 743040; also: % is scaled to controls: 0 for no effect and ±100 for the full control effect; nearly all actives have a fitted effect of over 20% in size); settings: MDA-kb2 AR-luc cells, MMTV luciferase, 16 h; activity change: at 70.3 µM (top of the series), stronger effect = higher value unless noted
How it was run: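 Human breast carcinoma MDA-kb2 reporter cells (MMTV-luc, AR/GR elements) were treated for 16 h at 37C in 0% CO2 following a 5 h settling period. Signal was quantified by ONE-Glo luminescence.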
Tags tell the direction and shape of the fitted curve or compound fluorescence and quenching.

UniProt P03372, sequence (P03372 whole entry, looked up): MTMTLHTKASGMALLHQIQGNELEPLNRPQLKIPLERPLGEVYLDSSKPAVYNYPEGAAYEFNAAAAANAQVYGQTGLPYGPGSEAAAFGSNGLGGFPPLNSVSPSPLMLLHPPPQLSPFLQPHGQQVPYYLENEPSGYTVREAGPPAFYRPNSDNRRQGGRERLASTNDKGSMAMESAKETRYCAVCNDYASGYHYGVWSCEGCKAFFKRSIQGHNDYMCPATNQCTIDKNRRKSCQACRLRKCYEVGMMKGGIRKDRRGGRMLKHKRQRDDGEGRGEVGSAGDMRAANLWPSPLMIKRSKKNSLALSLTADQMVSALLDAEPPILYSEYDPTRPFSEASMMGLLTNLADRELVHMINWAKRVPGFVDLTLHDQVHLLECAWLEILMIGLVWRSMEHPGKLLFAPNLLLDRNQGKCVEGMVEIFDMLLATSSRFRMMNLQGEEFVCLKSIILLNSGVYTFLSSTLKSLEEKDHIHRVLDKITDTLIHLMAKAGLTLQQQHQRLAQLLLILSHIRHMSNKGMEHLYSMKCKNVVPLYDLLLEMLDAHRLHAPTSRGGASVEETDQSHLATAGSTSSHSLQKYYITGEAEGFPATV
UniProt P10275, sequence (P10275 whole entry, looked up): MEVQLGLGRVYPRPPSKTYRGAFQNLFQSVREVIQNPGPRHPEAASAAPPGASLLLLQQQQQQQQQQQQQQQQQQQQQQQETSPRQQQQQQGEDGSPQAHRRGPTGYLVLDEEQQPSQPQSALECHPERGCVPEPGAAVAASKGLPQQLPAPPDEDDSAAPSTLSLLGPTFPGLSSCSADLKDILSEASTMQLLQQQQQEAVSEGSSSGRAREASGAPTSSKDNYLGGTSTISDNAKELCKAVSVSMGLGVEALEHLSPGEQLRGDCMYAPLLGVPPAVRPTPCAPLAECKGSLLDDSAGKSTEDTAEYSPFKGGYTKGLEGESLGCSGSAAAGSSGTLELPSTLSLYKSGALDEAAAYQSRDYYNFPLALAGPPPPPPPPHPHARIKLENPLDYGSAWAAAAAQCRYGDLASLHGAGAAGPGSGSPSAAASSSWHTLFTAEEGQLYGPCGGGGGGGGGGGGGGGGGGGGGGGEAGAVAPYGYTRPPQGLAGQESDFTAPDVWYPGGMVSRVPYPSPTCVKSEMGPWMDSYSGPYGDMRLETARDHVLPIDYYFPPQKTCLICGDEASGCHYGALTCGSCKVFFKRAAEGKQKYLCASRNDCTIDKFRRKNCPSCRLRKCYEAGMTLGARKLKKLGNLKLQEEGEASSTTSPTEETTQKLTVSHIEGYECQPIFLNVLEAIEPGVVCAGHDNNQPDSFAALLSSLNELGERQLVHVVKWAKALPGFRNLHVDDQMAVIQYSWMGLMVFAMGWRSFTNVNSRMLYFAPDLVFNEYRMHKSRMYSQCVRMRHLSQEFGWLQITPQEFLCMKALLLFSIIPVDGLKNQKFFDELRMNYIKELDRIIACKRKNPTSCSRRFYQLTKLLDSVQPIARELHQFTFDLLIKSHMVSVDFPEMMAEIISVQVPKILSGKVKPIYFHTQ

With Cc1c(C(=O)NN2CCCCC2)nn(-c2ccc(Cl)cc2Cl)c1-c1ccc(Cl)cc1 the Potency [1] was active: 19 µM, the Potency [2] was inconclusive: 30.1 µM [fluorescent, partial curve, poor fit] and the Potency [3] was inconclusive: 33.5 µM [inhibitor, single point]. For the same compound, the Potency [4] was active: 16.8 µM, the Potency [5] was active: 11.9 µM and the activation [6] was inconclusive: -8.97% [phenotype inactive]. For the same compound, the Potency [7] was inconclusive: 21.3 µM [fluorescent, partial curve] and the Potency [8] was inconclusive: 26.8 µM [cytotoxic, single point].

With C[C@]12CC[C@@H]3c4ccc(O)cc4CC[C@H]3[C@@H]1CC[C@H]2O the Potency [9] was inconclusive: 8.86 µM [cytotoxic, full curve], the Potency [8] was inconclusive: 24.5 µM [cytotoxic, partial curve, poor fit] and the Potency [10] was inconclusive: 77 µM [cytotoxic, single point].

For Cc1c(O)cccc1O, the Potency [9] was “inactive” and the activity, negative = inhibition [7] was inconclusive: 31.1% [at 79.1 µM].

For O=C(O)/C=C/c1ccc(O)c(O)c1, the activity change, negative = inhibition [1] was inconclusive: -1.4% [at 78.9 µM], the Potency [2] was inconclusive: 49.4 µM [activator, partial curve, poor fit] and the Potency [10] was inconclusive: 54.9 µM [rising, partial curve].

In the case of Cc1cscn1, the activity change, negative = inhibition [1] is reported as inconclusive: -1.93% and the Potency [2] is reported as “inactive”.

For CCN(CC#N)c1cccc(C)c1, the Potency [9] was inconclusive: 49 µM [rising, partial curve, poor fit] and the Potency [11] was “inactive”.

In the case of c1ccc(CC2=NCCN2)cc1, the Potency [9] is reported as inconclusive: 0.0014 µM [cytotoxic] and the Potency [12] is reported as “inactive”.

With CC(CO)Oc1ccccc1 (centres undefined) the Potency [1] was “inactive”, the Potency [7] was “inactive” and the Potency [8] was “inactive”. For the same compound, the Potency [10] was inconclusive: 25.1 µM [cytotoxic, partial curve, poor fit].

For CCCCN1CCCC[C@H]1C(=O)Nc1c(C)cccc1C, the activity change, negative = inhibition [1] was inconclusive: -0.907%, the Potency [2] was “inactive” and the Potency [3] was inconclusive: 0.0053 µM [inhibitor, full curve, poor fit]. The Potency [10] was “inactive”.

With Cc1ccc([N+](=O)[O-])cc1S(=O)(=O)O the Potency [1] was “inactive” and the Potency [2] was “inactive”.

In the case of NC(=O)[C@@H]1CSSCCC(=O)N[C@@H](CCCCN=C(N)N)C(=O)NCC(=O)N[C@@H](CC(=O)O)C(=O)N[C@@H](Cc2c[nH]c3ccccc23)C(=O)N2CCC[C@H]2C(=O)N1 ([Mpa][hArg]GDWPC-NH2; disulfide 1-7), the Potency [9] is reported as inconclusive: 6.01 µM [rising, partial curve, poor fit] and the Potency [7] is reported as “inactive”.

For CC(=O)OCCC(C)CC(C)(C)C (centres undefined), the Potency [9] was “inactive”, the Potency [6] was active: 24.3 µM and the Potency [13] was “inactive”.

With CC(=O)c1ccc[nH]1 the activity change, negative = inhibition [1] was inconclusive: 22.2%, the Potency [4] was inconclusive: 0.243 µM [rising, full curve, poor fit] and the Potency [7] was “inactive”. For the same compound, the Potency [10] was “inactive”.

For COc1cc2ncnc(Nc3ccc(F)c(Cl)c3)c2cc1OCCCN1CCOCC1, the activity change, negative = inhibition [1] was inconclusive: -12.4%, the Potency [2] was “inactive” and the Potency [3] was inconclusive: 33.5 µM [inhibitor, single point]. For the same compound, the Potency [5] was active: 10.6 µM, the activation [6] was inconclusive: -9.14% [phenotype inactive] and the Potency [7] was active: 16.9 µM [inhibitor]. The Potency [12] was inconclusive: 29.8 µM [inhibitor], the activity change, negative = inhibition [14] was inconclusive: -20.2% and the Potency [11] was inconclusive: 1.5 µM [cytotoxic, partial curve, poor fit].

For O=C(NC(Cc1cc(=O)[nH]c2ccccc12)C(=O)O)c1ccc(Cl)cc1 (centres undefined), the Potency [9] was “inactive” and the Potency [8] was “inactive”.

With COC(=O)C1=C(C)NC(C)=C(C(=O)OC(C)(C)CN(C)CCC(c2ccccc2)c2ccccc2)C1c1cccc([N+](=O)[O-])c1 (centres undefined) the Potency [1] was active: 23.9 µM, the Potency [2] was inconclusive: 30.1 µM [cytotoxic, partial curve, poor fit] and the Potency [4] was active: 8.41 µM. For the same compound, the activation [6] was inconclusive: -7.9% [phenotype inactive], the Potency [7] was active: 10.7 µM [inhibitor] and the Potency [8] was inconclusive: 10.7 µM [cytotoxic, partial curve, poor fit]. For the same compound, the Potency [12] was inconclusive: 29.8 µM [inhibitor].

In the case of N[C@H]1C(O)O[C@H](CO)[C@@H](O)[C@@H]1O (some centres undefined), the Potency [9] is reported as “inactive” and the Potency [8] is reported as “inactive”.

For CCCCCCCCCCCCCCC[C@H](O)[C@@H](N)CO, the Potency [1] was “inactive”, the Potency [2] was inconclusive: 9.52 µM [activator, single point] and the Potency [4] was inconclusive: 29.8 µM [cytotoxic, partial curve, poor fit]. The Potency [5] was inconclusive: 33.5 µM [inhibitor] and the Potency [12] was “inactive”.

In the case of CC(=O)OCC(C)C, the activity change, negative = inhibition [1] is reported as inconclusive: -28.1%, the activity change [15] is reported as inconclusive: -1.32% [phenotype inactive] and the Potency [7] is reported as inconclusive: 53.7 µM [fluorescent, partial curve]. The Potency [8] was inconclusive: 42.7 µM [cytotoxic, partial curve], the Potency [13] was “inactive” and the activation [12] was inconclusive: 11.2% [phenotype inactive]. The activity change, negative = inhibition [14] was inconclusive: -9.25% and the Potency [11] was “inactive”.

Source: PubChem BioAssay (Tox21)
